Among all 390,000 compounds or so, about 1,400 (0.36%) were called active. The shares of active, inactive and inconclusive entries below differ from those in the screen. Calls come from the whole dose curve; as a rule, active = well fitted inhibition curve with a large enough effect; inconclusive = small, poorly fitted or top-dose-only effect; inactive = no such curve, though single readings can be large or run the other way. Potencies beside an inconclusive call are fits to weak or partial responses and may not hold up.
What follows are compounds tested against Flap endonuclease 1 (Homo sapiens) (UniProt P39748) (assay: qHTS Assay for the Inhibitors of Human Flap endonuclease 1 (FEN1).). Conditions: Recombinant FEN1 flap cleavage, fluorescence, 15 min; series mostly up to 114 µM.
Outline: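 Nuclease activity of 10 nM FEN1 was measured after 15 min of room-temperature exposure to titrated compounds, by adding 50 nM flap substrate and reading plates at 0 and 15 min.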
Note: nearly all actives have a fitted effect of over 65% in size.
Potency is the fitted concentration of half-maximal effect; tags give direction and shape of the fitted curve.

Sequence of UniProt P39748 (P39748 whole entry, looked up): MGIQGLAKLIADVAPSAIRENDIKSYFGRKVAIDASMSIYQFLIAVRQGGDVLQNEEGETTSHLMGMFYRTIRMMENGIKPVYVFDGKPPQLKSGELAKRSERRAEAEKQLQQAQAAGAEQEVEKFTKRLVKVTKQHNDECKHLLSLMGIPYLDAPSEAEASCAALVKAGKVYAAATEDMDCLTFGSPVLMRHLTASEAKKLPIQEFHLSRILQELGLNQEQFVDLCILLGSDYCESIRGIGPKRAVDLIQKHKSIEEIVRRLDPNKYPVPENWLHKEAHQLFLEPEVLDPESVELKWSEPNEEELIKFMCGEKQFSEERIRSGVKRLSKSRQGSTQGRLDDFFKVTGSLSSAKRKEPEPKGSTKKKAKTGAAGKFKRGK

Structure (SMILES)	Potency
CCc1ccc(CCC(=O)Nc2ccc(C)cc2C)o1	inactive
CCc1noc(-c2ccc(N3CCC(C)CC3)c([N+](=O)[O-])c2)n1	inactive
O=C(CN1C(=O)c2cccnc2Oc2ccc(Cl)cc21)NCCCN1CCCCC1	inactive
Cc1ccc(-c2csc3ncnc(OCC(=O)NC(=O)NCc4ccco4)c23)cc1	inactive
NC(N)=Nc1nc(-c2ccccc2)c2cc(Cl)ccc2n1	inconclusive: 39.8 µM [inhibitor, partial curve]
CCO[C@@H]1OC(C(=O)N2CCN(Cc3ccc4c(c3)OCO4)CC2)=C[C@H](c2csc3ccccc23)[C@H]1CCCO	inconclusive: 89.1 µM [inhibitor, partial curve, poor fit]
COc1ccc(S(=O)(=O)N(C)C[C@H]2Oc3c(NC(=O)Nc4ccc(C(F)(F)F)cc4)cccc3C(=O)N([C@H](C)CO)C[C@@H]2C)cc1	inconclusive: 44.7 µM [inhibitor, partial curve, poor fit]
CCOc1ncccc1C(=O)Nc1cc2c(cc1Br)OCCO2	inconclusive: 39.8 µM [inhibitor, partial curve, poor fit]
Cc1c(OCC(=O)NC(Cc2ccc(Cl)cc2)C(=O)O)ccc2c1oc(=O)c1ccccc12 (centres undefined)	inconclusive: 31.6 µM [inhibitor, partial curve, poor fit]
O=c1cc(-c2ccc(O)cc2)oc2c(C3OCC(O)C(O)C3O)c(O)c(C3OC(CO)C(O)C(O)C3O)c(O)c12 (centres undefined)	inconclusive: 20 µM [inhibitor, full curve]
CCOc1ccc(CN2CCN(c3ncnc4scc(-c5ccccc5)c34)CC2)cc1	inactive
CCC(C(=O)N1CCN(c2cc(Cl)ccc2C)CC1)n1nc(C)c2sc3ccccc3c2c1=O (centres undefined)	inconclusive: 89.1 µM [inhibitor, partial curve, poor fit]
O=C(NCCN=C1NS(=O)(=O)c2ccccc21)c1ccc(S(=O)(=O)N2CCOCC2)cc1	inconclusive: 89.1 µM [inhibitor, partial curve, poor fit]
COc1ccc2[nH]c(C(=O)N/N=C/c3cc(OC)c(OC)c(OC)c3)cc2c1	inconclusive: 31.6 µM [inhibitor, full curve]
CCc1ccc(NS(=O)(=O)c2cc3c(cc2C)n(C)c(=O)c(=O)n3C)cc1	inactive
CC(C)(C)C(=O)Nc1ncccc1C(O)c1cccc(C(F)(F)F)c1 (centres undefined)	inconclusive: 100 µM [inhibitor, single point]
CCCCN(C)CC(O)Cn1cc(/C=C/C(=O)c2ccc(OC)c(OC)c2)c2ccccc21 (centres undefined)	inconclusive: 39.8 µM [inhibitor, partial curve]
O=C(/C=C/c1c(Cl)cccc1Cl)N1CCOCC1	inactive
Cc1nn(-c2ccc(C(F)(F)F)cn2)c(C)c1Oc1ccccc1O	inconclusive: 89.1 µM [inhibitor, partial curve, poor fit]
COc1cc(NCCCNC(C)C)c2nccc(C)c2c1	inconclusive: 89.1 µM [inhibitor, single point]

Structure (SMILES)	Potency
CCCOc1ccc(Cl)cc1CNc1ccccc1	inactive
CCCOP(=O)(c1ccc(N(C)C)cc1)C(O)c1ccc(Br)cc1 (centres undefined)	inactive
Cc1cc(/C=C2\SC(=S)NC2=O)cc(C)c1O	inactive
Cc1ccc(NC(=O)Cn2cnc3cc([N+](=O)[O-])ccc3c2=O)cc1	inconclusive: 100 µM [inhibitor, partial curve, poor fit]
O=C(O)c1cc(O)c2c(c1)[C@@H]([C@H]1c3cc(C(=O)O)cc(O)c3C(=O)c3c(O[C@@H]4O[C@H](CO)[C@@H](O)[C@H](O)[C@H]4O)cccc31)c1cccc(O[C@@H]3O[C@H](CO)[C@@H](O)[C@H](O)[C@H]3O)c1C2=O	active: 3.16 µM
Cc1ccc2nc(NC(=O)CSc3nc(=O)n(CCCN(C)C)c4c3CCC4)sc2c1	inconclusive: 44.7 µM [inhibitor, partial curve]
COc1ccc(N2CSC3=C(C#N)C(c4cc(OC)ccc4OC)CC(=O)N3C2)c(OC)c1 (centres undefined)	inconclusive: 20 µM [inhibitor, partial curve, poor fit]
CC(=O)OCC1=C(C(=O)OC(C)(C)C)N2C(=O)[C@@H](NC(=O)Cc3ccccc3)[C@H]2SC1	inconclusive: 89.1 µM [inhibitor, partial curve, poor fit]
COc1cccc(-c2ccc3c(N)c(C(=O)NCc4ccc(Cl)cc4)sc3n2)c1	inconclusive: 79.4 µM [inhibitor, partial curve, poor fit]
O=C(N=Nc1c(O)[nH]c2ccccc12)c1ccc(CN2CCOCC2)cc1	inconclusive: 89.1 µM [inhibitor, partial curve, poor fit]
CCN(CC(=O)NCc1cccs1)C(=O)c1ccc(S(=O)(=O)Nc2ccccc2F)cc1	inactive
Cc1oc(C)c2c(=O)cc(-c3ccc4c(c3)OCO4)cc(OC(=O)c3ccccc3Cl)c12	inconclusive: 70.8 µM [inhibitor, partial curve, poor fit]
Cc1ccc(-c2nc3c(c(SCC(=O)N4CCOCC4)n2)Cc2c(CO)cnc(C)c2O3)cc1	inactive
CCOC(=O)c1cc(-c2ccccc2)n(CCC(=O)Nc2ccc(Cl)c(C(F)(F)F)c2)c1C	inconclusive: 50.1 µM [inhibitor, partial curve, poor fit]
O=C(N/N=C/c1cccc(O)c1)c1cc(-c2ccc3c(c2)OCO3)n[nH]1	inactive
CC(=O)Nc1ccc(S(=O)(=O)O)c2cc(S(=O)(=O)O)c(N=Nc3ccc(N=Nc4ccc(S(=O)(=O)O)cc4)c4ccc(S(=O)(=O)O)cc34)c(O)c12	active: 1.26 µM
CCOCCCNC(=O)c1cc2c(-c3ccc(OC)c(OC)c3)nn(C)c2s1	inconclusive: 35.5 µM [inhibitor, partial curve]
O=C(O)c1cc(-c2ccc(/C=C3\NC(=O)N(c4ccc(Cl)cc4)C3=O)o2)ccc1Cl	inconclusive: 20 µM [inhibitor, full curve, poor fit]
COc1ccc(/C=C2\Sc3ccc(C(=O)NC4CC4)cc3N(C)C2=O)cc1OC	inconclusive: 39.8 µM [inhibitor, single point]

From PubChem BioAssay AID588795 (National Center for Advancing Translational Sciences (NCATS), 2011)
